In general, Kd refers to the free concentration of one partner at which half of the binding sites on the other are occupied at equilibrium, for simple one-to-one binding. Read a low Kd as a tighter complex.

The target in the test is GST-tagged CDK2 (human cyclin-dependent kinase 2, 1-298) (human, UniProt P24941). Nature of the test: SPR; GST-CDK2 captured by anti-GST antibody on a CM5 chip (GST on the reference surface); Biacore S200, 20 °C; 20 mM HEPES, 150 mM NaCl, 10 mM MgCl2, 0.01% Tween 20, pH 7.4, no DMSO; single-cycle run, cyclin A 0-100 nM in eight points, 180 s association and 180 s dissociation; kinetic fit; two independent replicates. Particulars: both partners purified.

Values joined by “and” are separate entries in the source; they are usually repeats but may differ in a detail not shown here. Equal entries are not always repeated.

B1: Bovine cyclin A ([…] with a C-terminal 6His tag) (domain or fragment)
chain: not shown
notes: source: E. coli BL21(DE3)pLysS, purified (Ni, SEC)
In the case of B1, the Kd is 3.1 nM and 2.6 nM.

Values taken from article PMC10239507, “Development of allosteric and selective CDK2 inhibitors for contraception with negative cooperativity to cyclin binding” (Nature Communications, 2023).
